The campaign covered roughly 390,000 compounds. About 4,700 (1.2%) were called active. The shares of active, inactive and inconclusive entries below differ from those in the screen. Calls come from the whole dose curve; as a rule, active = well fitted inhibition curve with a large enough effect; inconclusive = small, poorly fitted or top-dose-only effect, or another doubt; inactive = no such curve, though single readings can be large or run the other way. Potencies beside an inconclusive call are fits to weak or partial responses and may not hold up.
The molecules below were run against DNA polymerase eta (Homo sapiens) (UniProt Q9Y253) (assay: qHTS for Inhibitors of Polymerase Eta). Conditions: recombinant Pol eta, fluorescent DNA replication assay; series mostly up to 114 µM; activity change, negative = inhibition: at the top concentration.
Chain of UniProt Q9Y253 (Q9Y253 whole entry, looked up): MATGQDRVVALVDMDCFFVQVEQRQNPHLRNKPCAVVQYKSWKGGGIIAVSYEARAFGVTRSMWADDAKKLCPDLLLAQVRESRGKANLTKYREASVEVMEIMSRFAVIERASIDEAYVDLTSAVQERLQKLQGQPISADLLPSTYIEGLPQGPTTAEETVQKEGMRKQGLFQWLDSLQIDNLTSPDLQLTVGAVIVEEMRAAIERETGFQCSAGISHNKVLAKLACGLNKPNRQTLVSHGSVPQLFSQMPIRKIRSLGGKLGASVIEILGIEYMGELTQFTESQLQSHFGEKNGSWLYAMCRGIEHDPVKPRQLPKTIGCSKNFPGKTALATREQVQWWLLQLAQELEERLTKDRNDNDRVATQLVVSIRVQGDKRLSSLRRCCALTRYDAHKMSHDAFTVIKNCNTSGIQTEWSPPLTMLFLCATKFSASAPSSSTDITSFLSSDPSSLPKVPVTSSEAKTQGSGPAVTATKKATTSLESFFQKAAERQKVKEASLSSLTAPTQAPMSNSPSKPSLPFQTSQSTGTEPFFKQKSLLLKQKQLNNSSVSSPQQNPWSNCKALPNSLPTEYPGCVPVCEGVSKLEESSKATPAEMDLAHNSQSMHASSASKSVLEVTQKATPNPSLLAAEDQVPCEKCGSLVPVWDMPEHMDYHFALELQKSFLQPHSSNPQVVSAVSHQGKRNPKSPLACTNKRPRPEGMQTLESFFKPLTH
Method in brief: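 Pol eta at 10 nM preincubated with compounds 15 min at room temperature; reaction started with fluorescent substrate (50 nM final) and read kinetically at 0 and 10 min.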
O=C1/C(=C\c2cccnc2)CCc2ccccc21 was tested, and the Potency was inconclusive: 14.1 µM [inhibitor, full curve, poor fit]. With CN(C)c1ccc(/C=[N+](\[O-])C2SC(=S)N(C)C2(C)C)cc1 (configuration not stated) the Potency was inconclusive: 89.1 µM [inhibitor, partial curve, poor fit]. Cc1nc2[nH]c(=O)n(O)c(=O)c2s1 was tested, and the Potency was inconclusive: 56.2 µM [inhibitor, partial curve, poor fit]. In the case of C=CCOC(=O)C1=C(C)NC(C)=C(C(=O)OCC=C)C1c1ccc(C)o1, the Potency is reported as inconclusive: 22.4 µM [inhibitor, partial curve, poor fit]. CCOC(=O)C1=C(CN2CCN(c3ccccc3OC)CC2)NC(=O)NC1c1ccccc1 (configuration not stated) was tested, and the Potency was inconclusive: 79.4 µM [inhibitor, partial curve, poor fit]. With Cc1noc(C)c1S(=O)(=O)N(CC(=O)O)c1ccc2c(c1)OCO2 the Potency was inconclusive: 15.8 µM [inhibitor, partial curve, poor fit]. With Cc1cc(C)c2c(N)c(C(=O)Nc3nccs3)sc2n1 the Potency was inconclusive: 28.2 µM [inhibitor, single point]. With CC(C)C[C@@H](NC(=O)C1CCC(CNC(=O)[C@H](Cc2ccccc2)NC(=O)OC(C)(C)C)CC1)C(=O)O (some centres not stated) the Potency was inconclusive: 79.4 µM [inhibitor, partial curve, poor fit]. For CC(C)(C)c1ccc(C(=O)NCCc2csc(-c3ccc(Cl)cc3)n2)cc1, the Potency was inconclusive: 100 µM [inhibitor, partial curve, poor fit]. For O=C(COc1ccc(F)cc1)Nc1nc(-c2ccccn2)cs1, the Potency was inconclusive: 12.6 µM [inhibitor, partial curve, poor fit]. Oc1c(Br)cc(/C=N/n2c(-c3ccccc3)n[nH]c2=S)c(O)c1Br was tested, and the Potency was active: 10 µM. N#Cc1ccc(OCC(O)CS(=O)(=O)c2ccccc2)cc1 (configuration not stated) was tested, and the Potency was inconclusive: 89.1 µM [inhibitor, partial curve, poor fit]. With N#C/C(=C\c1ccc(OCc2ccc(Cl)cc2)cc1)C(=O)Nc1cccc(C(=O)O)c1 the Potency was inconclusive: 50.1 µM [inhibitor, partial curve, poor fit]. CCN1C(C)=C(C)S/C1=C1\SC(=S)N(C2CCCCC2)C1=O was tested, and the “activity change, negative = inhibition” value was inactive: -4.88%. In the case of CCCCC[C@@H](/C=C/C1C(=O)C=C[C@H]1C/C=C\CCCC(=O)O)OC(C)=O (some centres not stated), the Potency is reported as active: 44.7 µM. With COC(=O)C(C)Oc1ccc2c(c1)O/C(=C\c1ccco1)C2=O (configuration not stated) the Potency was active: 44.7 µM. In the case of O=C(Cn1c2ccccc2c(=O)c2ccccc21)N/N=C/c1cc([N+](=O)[O-])ccc1N1CCCCCC1, the Potency is reported as active: 2.82 µM.

— PubChem BioAssay AID588591 (National Center for Advancing Translational Sciences (NCATS), 2011)
% is set by controls: 0 for no effect and ±100 for the full control effect; potency is the fitted concentration of half-maximal effect; tags give direction and shape of the fitted curve.
